Results are given in words; binding and its absence hold for the method and conditions named. For part of these data: Binding seen in cells or lysates may run through a third protein. Some binding calls cover weakened binding; strength is not graded here. For part of these data: Where a sequence is shown, tags or fusion partners need not be part of it.

Sequences of proteins named here, by UniProt entry; tags and fusion partners are left off. A change or cut given only in a name is not applied to a line headed by its entry. A line that says so, or that is headed by a name, gives the form on record, which may keep a tag or linker. Residues count along the entry.
UniProt Q9Y508: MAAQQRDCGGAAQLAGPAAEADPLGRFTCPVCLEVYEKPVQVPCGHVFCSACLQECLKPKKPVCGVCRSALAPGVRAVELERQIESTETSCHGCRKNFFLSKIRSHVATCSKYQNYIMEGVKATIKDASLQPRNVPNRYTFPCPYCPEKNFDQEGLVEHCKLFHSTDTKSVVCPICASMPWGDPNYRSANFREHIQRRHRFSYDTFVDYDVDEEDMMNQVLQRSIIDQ
ZNF313 RING mutant (RING-MT) (Q9Y508, form named): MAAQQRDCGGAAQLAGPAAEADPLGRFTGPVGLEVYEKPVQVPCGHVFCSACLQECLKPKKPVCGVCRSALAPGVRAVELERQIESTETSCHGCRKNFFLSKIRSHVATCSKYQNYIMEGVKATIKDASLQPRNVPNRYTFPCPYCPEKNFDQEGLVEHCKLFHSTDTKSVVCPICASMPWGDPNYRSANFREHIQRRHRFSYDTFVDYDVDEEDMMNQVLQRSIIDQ
UniProt P11021, residues 19-654: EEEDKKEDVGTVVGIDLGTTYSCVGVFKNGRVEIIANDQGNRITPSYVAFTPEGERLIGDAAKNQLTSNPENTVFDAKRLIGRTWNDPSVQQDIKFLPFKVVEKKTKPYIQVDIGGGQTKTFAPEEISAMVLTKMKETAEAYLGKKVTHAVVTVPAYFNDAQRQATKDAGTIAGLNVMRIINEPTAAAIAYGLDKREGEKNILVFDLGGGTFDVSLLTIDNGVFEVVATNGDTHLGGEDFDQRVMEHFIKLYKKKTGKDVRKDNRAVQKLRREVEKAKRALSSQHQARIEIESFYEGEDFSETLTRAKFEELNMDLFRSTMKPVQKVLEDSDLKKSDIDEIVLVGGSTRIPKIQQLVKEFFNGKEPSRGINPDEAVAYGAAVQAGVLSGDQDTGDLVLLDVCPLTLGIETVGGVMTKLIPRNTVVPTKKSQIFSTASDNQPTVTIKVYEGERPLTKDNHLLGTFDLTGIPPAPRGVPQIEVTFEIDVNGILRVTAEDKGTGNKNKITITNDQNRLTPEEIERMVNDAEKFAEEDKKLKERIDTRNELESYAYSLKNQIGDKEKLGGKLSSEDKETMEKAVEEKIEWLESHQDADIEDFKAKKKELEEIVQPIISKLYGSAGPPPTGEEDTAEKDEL

Experimental findings from publication PMC9334361 are described below.

Test [1] deals with ZNF313 RING mutant (RING-MT) (UniProt Q9Y508). Briefly: pull-down; Ni-NTA pull-down of WT and mutants of ZNF313, GRP78 detected.
The target in test [2] is ZNF313-His (UniProt Q9Y508). The test is described as above.
For test [3], the target named is T1, X-linked inhibitor of apoptosis (XIAP)-associated factor 1 (XAF1), wild type, in cells (UniProt Q6GPH4).
T1 sequence: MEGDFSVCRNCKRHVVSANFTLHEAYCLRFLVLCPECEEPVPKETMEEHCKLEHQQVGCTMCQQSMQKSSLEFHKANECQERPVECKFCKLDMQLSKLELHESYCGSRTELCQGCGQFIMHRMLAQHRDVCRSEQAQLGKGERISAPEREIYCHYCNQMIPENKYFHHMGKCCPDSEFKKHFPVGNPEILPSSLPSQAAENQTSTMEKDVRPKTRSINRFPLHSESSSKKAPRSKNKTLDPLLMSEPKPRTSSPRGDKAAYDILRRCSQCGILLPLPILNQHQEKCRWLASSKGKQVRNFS
Nature of the test: co-IP; IP assays of XAF1 (WT and deletion mutants) and GRP78 from cells (Fig. 3A, B, E-G); details in the supplementary methods.

The target in test [4] is zinc finger protein 313 (ZNF313), in cells (UniProt Q9Y508). Nature of the test: co-IP; IP assays of ZNF313 and GRP78 from cells; also with increasing XAF1 transfection (equal amount of ZNF313 input), TG treatment of HT1376 XAF1+/+ and XAF1-/- sublines, HAP1 ZNF313+ and ZNF313- sublines.
For another test, the target named is T2, GST-XAF1 (UniProt Q6GPH4).
T2 sequence: T1 sequence
Nature of the test: pull-down; in vitro GST pull-down; purified GST-XAF1 and recombinant GRP78; both purified.

For test [5], the target named is ZNF313-His (UniProt Q9Y508). Nature of the test: pull-down; in vitro pull-down (legend: GST pull-down); purified ZNF313-His and recombinant GRP78 (r-GRP78); both purified.

For “Glucose-regulated protein (GRP78), in cells or lysates (from UniProt P11021 19-654)”, the binding entry is “no binding” in test [1], “binds” in the test with ZNF313-His [2], “binds” in test [3] and “binds” in test [4].
Take “recombinant GRP78 (from UniProt P11021 19-654)”: the binding result in the test with GST-XAF1 and with ZNF313-His [5] was “binds” each time.
